Measurements published in the BET-seq Pho4 binding data (Le et al. 2018).
The other results are listed elsewhere or left out. The energies were worked out here from pooled read counts, against the library average; single values are noisy.

Biological target: T1, Pho4 (S. cerevisiae) (UniProt P07270)
T1 sequence: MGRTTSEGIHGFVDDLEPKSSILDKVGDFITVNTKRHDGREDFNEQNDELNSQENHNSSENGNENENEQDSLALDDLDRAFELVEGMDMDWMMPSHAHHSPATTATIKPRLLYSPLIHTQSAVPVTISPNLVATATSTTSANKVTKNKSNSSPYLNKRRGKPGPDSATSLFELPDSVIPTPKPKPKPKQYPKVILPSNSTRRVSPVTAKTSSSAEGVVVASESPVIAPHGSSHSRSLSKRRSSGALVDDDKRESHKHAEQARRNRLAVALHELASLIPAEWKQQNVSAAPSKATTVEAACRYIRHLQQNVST
Experiment: relative binding free energy (BET-seq); higher = weaker binding
Details: reference: library average

Sequence | relative binding free energy [kcal/mol]
TTTAGCACGTGTGGCG | 0.04
TAGAACACGTGCTGGT | -0.02
ATAAGCACGTGGATGC | 0
CGGTTCACGTGTTAGA | 0.24
TAGAGCACGTGTTTTG | -0.1
CCTGGCACGTGAGTGT | 0.09
GGGTGCACGTGACGGC | 0.17
TCGATCACGTGGGTCG | 0.12
GGTTTCACGTGGGCGA | 0.36
ATGTTCACGTGTGGTG | 0.29
TTAGTCACGTGGGGCA | -0.1
GGGGACACGTGTAATG | 0.12
TTTCACACGTGGTTCT | 0.05
TAATACACGTGAGGGT | 0.33
GTGCGCACGTGATTGA | 0.21
GTTGTCACGTGTCGCT | 0.12
TTTTTCACGTGTTTTG | 0.33
GAACGCACGTGGTAGT | 0.05
AGTGTCACGTGGCTCG | -0.06
GATGTCACGTGGGCCG | 0.01
AGGTGCACGTGACGTG | 0.06
AGAAGCACGTGTTGTT | -0.05
AAACTCACGTGGGGTT | 0
TATGGCACGTGGTGTG | -0.17
AGTGTCACGTGAGGAA | 0.15

Sequence | relative binding free energy [kcal/mol]
GTGCGCACGTGCGGTA | -0.16
TTTCGCACGTGATTAT | 0.14
CGGATCACGTGCGGGG | 0.08
GTTTTCACGTGCTGAA | 0.18
TTGTCCACGTGGCGTG | -0.02
TTTCTCACGTGGGCTA | 0.16
TATCACACGTGGGGTT | -0.03
GGGTTCACGTGCATGT | 0.22
GGAGACACGTGGGATG | -0.06
GGCTTCACGTGAGGGA | 0.27
AGCGTCACGTGGGGGC | -0.13
AAGTGCACGTGCGGAT | -0.02
AGGTACACGTGTATAT | -0.04
GAGTACACGTGTGTGA | 0.09
GGGAACACGTGTAAAG | 0.23
TAAAACACGTGATGGT | 0.18
TAATGCACGTGGTTTG | -0.01
TCGGGCACGTGATTAT | 0.03
TGCTTCACGTGAGTGT | 0.31
ACTTGCACGTGGGGAA | -0.19
CAAGGCACGTGTTATG | -0.1
CGAATCACGTGAGTTT | 0.42
TGTTACACGTGGGCCG | -0.04
TAGCTCACGTGGATGG | 0.2
GTAATCACGTGGGGAA | 0.08

Sequence | relative binding free energy [kcal/mol]
TATTACACGTGGTTGA | 0
AGTAACACGTGTGATA | 0.14
CGTCGCACGTGAGAGG | 0.24
TGTTGCACGTGTTGCT | 0
TCGTGCACGTGGGGTT | -0.16
GATGGCACGTGCGGTT | -0.06
AAGTGCACGTGGTTAA | -0.3
AGGTTCACGTGGTCTC | 0.23
GTTGACACGTGGTCGG | -0.1
GAGTTCACGTGCAGGC | 0.5
GATGGCACGTGGCCTG | -0.08
TCATACACGTGGGGTA | -0.08
TTAGTCACGTGTCGTG | 0.02
GTGCGCACGTGTTTCG | 0.02
TATTGCACGTGGTACT | -0.17
CATGGCACGTGGAAGG | 0.01
CAGGTCACGTGGTCTG | -0.09
TTGTTCACGTGGTTAG | 0.19
GTGTCCACGTGGCAGG | -0.07
TTCGGCACGTGCTAGG | -0.09
AGTTGCACGTGCCTGG | -0.17
TGGTCCACGTGTCGGT | -0.14
GAGTTCACGTGATGCG | 0.27
GTGGTCACGTGGGCGT | 0.02
CGTTGCACGTGTCTTT | -0.02

Sequence | relative binding free energy [kcal/mol]
AGGGGCACGTGCTTGA | -0.18
CAGAGCACGTGGGGTA | -0.2
GGTCTCACGTGTCAGG | 0.2
ATTCTCACGTGTGCGT | 0.25
ATGGGCACGTGCTTTG | -0.21
TTATACACGTGTATAA | 0.07
TTTCTCACGTGAGGGG | 0.21
TGTGGCACGTGGGAAA | -0.07
GGTAACACGTGAAAGT | 0.33
AGTGACACGTGTTTTT | 0.01
AGTGGCACGTGACTTG | -0.06
GTAGCCACGTGTGTGA | -0.08
TGAGACACGTGGAATG | 0.07
ACAGTCACGTGGTGTA | -0.18
ATGTGCACGTGGAGCA | -0.11
CTGAACACGTGTTTGT | 0
TAGCTCACGTGTTTTG | 0.07
GGGTTCACGTGCATAT | 0.11
TTGTCCACGTGTTTTT | 0.02
TGTAGCACGTGTCTAG | -0.03
TATGGCACGTGTGCCG | -0.14
TGGGTCACGTGTATAG | 0.18
ACATGCACGTGGTATT | -0.08
GTGAGCACGTGGTGTT | -0.21
TCTTTCACGTGAAGTT | 0.31

Sequence | relative binding free energy [kcal/mol]
AGGGTCACGTGGTTTG | 0.18
GTTATCACGTGTTGGA | 0.24
CTTTTCACGTGTTTGA | 0.19
GATTTCACGTGTACGT | 0.31
CCGGGCACGTGCTGGG | -0.26
GGCCGCACGTGGGTTG | -0.2
GAGTTCACGTGTCGAT | 0.39
GGGTACACGTGGCTTT | -0.07
GGGCGCACGTGTGGGC | 0.07
GATTACACGTGTTAGG | 0.04
CGTTGCACGTGACGGG | 0.1
GTTTCCACGTGCGTGT | 0
AAATTCACGTGATGAG | 0.39
CTCGTCACGTGGAGGG | -0.01
GGCTTCACGTGGGTGC | 0.07
TCTCTCACGTGAGGGT | 0.3
GGAGGCACGTGGAGAA | -0.06
AATGTCACGTGGGGCT | -0.04
GTGGGCACGTGTTCGG | -0.05
AGGATCACGTGGCTTT | 0.08
TGGGTCACGTGATAAT | 0
TCAAGCACGTGTGGGT | 0.04
GCGGCCACGTGGTGGT | -0.09
AGTCTCACGTGTGAGT | 0.16
TTGGACACGTGTTAGT | 0.12

Sequence | relative binding free energy [kcal/mol]
TTAAGCACGTGGTACG | -0.22
AGCGCCACGTGAGTGT | 0.04
TGGTACACGTGCTGGC | 0.14
ATTTGCACGTGAGTGG | 0.24
AGGGACACGTGGATTG | 0.09
TACGGCACGTGGGCGT | -0.37
GATGCCACGTGGGAGG | -0.11
CTTAACACGTGTAGGG | 0.06
GAGTTCACGTGTTGAA | 0.28
ATTTGCACGTGTTGTT | -0.04
CAAGGCACGTGAGAGG | 0.05
GGCGGCACGTGTGTTC | 0.1
TCGTGCACGTGTCGTG | -0.06
GTGTGCACGTGATGCG | 0
TGTATCACGTGGTATT | 0.07
TGTACCACGTGTTTTT | -0.1
AGTATCACGTGCGGGA | 0.12
AGTTCCACGTGAGGGA | 0.35
GCCGTCACGTGTTGGT | 0.08
AAAGTCACGTGGTGGC | 0.2
ACCTGCACGTGGGGTG | -0.11
